From PubChem BioAssay AID624417 (National Center for Advancing Translational Sciences (NCATS), 2012)
Among all 410,000 compounds or so, about 6,400 (1.6%) were called active. Inconclusive means that the source gave no clear call. Such entries were picked first, then a sample of the others. Calls follow the shape of the dose curve; as a rule, active = well fitted inhibition curve with a large enough effect; inconclusive = small, poorly fitted or top-dose-only effect; inactive = no such curve, though single readings can be large or run the other way. A potency beside an inconclusive call is a rough fit, not a confirmed value.

Molecular target: Glucagon-like peptide 1 receptor (Homo sapiens) (UniProt P43220)
Chain of UniProt P43220 (P43220 whole entry, looked up): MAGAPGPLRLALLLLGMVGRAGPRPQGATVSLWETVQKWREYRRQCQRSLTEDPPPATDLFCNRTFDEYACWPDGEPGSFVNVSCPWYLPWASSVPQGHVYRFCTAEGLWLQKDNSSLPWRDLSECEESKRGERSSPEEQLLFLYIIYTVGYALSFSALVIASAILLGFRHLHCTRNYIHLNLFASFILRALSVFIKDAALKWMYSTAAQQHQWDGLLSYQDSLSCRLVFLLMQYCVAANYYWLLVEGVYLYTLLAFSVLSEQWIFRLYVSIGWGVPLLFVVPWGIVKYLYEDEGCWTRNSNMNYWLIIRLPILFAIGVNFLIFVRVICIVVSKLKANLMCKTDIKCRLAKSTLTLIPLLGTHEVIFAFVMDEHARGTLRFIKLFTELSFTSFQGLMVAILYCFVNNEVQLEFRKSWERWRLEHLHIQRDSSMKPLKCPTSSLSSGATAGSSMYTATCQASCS
Assay: qHTS of GLP-1 Receptor Inverse Agonists (Inhibition Mode); also: nearly all actives have a fitted effect of over 55% in size
Conditions: HEK293 GLP-1R CRE-luciferase, luminescence, 24 h, GLP-1R form is constitutively active; activity change, negative = inhibition: at 38.3 µM (top of the series) unless noted
Procedure, shortened: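 GLP-1R inverse agonism mode: basal reporter luminescence in engineered HEK293 cells measured after one day of compound exposure at 37 deg C, with a 12 min room-temperature detection step.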
% is scaled to controls: 0 for no effect and ±100 for the full control effect; potency is read from the fitted curve at half-maximal effect; tags tell the direction and shape of the fitted curve.

Potency, inactive:
C[C@H](CO)N1C[C@H](C)[C@H](CN(C)C(=O)Nc2ccc3c(c2)OCCO3)OCc2cnnn2CCCC1=O
CCc1nnc(SCC(=O)Nc2ccc(Cl)cc2F)c2cc3occc3n12
Cc1cccc(N2CCN(C(=O)c3cn(C)c4ccc(S(=O)(=O)N(C)C)cc4c3=O)CC2C)c1 (stereo not drawn)
CC(=O)c1cnc(Nc2nc(C)c3cc(C)c(C)cc3n2)nc1C
CCCNC(=O)C1(C)CCCN(Cc2ccc(C(=O)OCC)o2)C1 (stereo not drawn)
Cc1cccc(C#CC2=CC(=O)CC(C)(C)C2)c1

Potency, inconclusive:
CCc1ccc(CNC(=O)c2ccc(CS(=O)c3ccc(Br)cc3)o2)cc1 (stereo not drawn) 11.2 µM [inhibitor, single point]
CCOC(=O)Cn1c(=O)n(-c2ccccc2OC)c2nc(-c3ccccc3)nc(C(N)=O)c21 11.2 µM [inhibitor, partial curve]
CCc1ccc(-n2c(SCc3nc(-c4cc(OC)ccc4OC)no3)nnc2-c2ccccc2)cc1 15.8 µM [inhibitor, single point]
COc1ccc(C2=CC(c3ccccc3Cl)n3nc(-c4ccc(C)cc4)nc3N2)cc1 (stereo not drawn) 4.47 µM [inhibitor, partial curve]
COc1cnc(-c2ccccn2)nc1Oc1ccc(F)cc1F 31.6 µM [inhibitor, single point]
CC1=C(C(=O)N(C(C)C)C(C)C)CC(CC(=O)NCc2ccco2)C(=O)N1Cc1ccc(C(C)(C)C)cc1 (stereo not drawn) 28.2 µM [inhibitor, single point]
N#CC(=C1C=C(Br)C(=NO)C=C1Cl)c1cccc2ccccc12 7.08 µM [inhibitor, partial curve, poor fit]
O=C(OCc1ccccn1)c1ccc(COc2ccc3ccccc3c2)o1 28.2 µM [inhibitor, single point]
COc1ccc(-c2csc3ncnc(N4CCN(c5ccccc5Cl)CC4)c23)cc1 31.6 µM [inhibitor, single point]
O=C(NC1CCCCCC1)c1c2c(nc3ccccc13)CCN(Cc1ccccc1)C2 7.94 µM [inhibitor, partial curve, poor fit]
Cc1ccc(S(=O)(=O)N(C)c2ccc(C(=O)N3CCCCC3)cc2)cc1 28.2 µM [inhibitor, single point]

Activity change, negative = inhibition, inconclusive:
OCCN1CCN(CC(O)COc2ccc(C34CC5CC(CC(C5)C3)C4)cc2)CC1 (stereo not drawn) -82% [inhibitor] [at 7.66 µM]
